Results as given in ChEMBL document CHEMBL4888484, “Replenishing the malaria drug discovery pipeline: Screening and hit evaluation of the MMV Hit Generation Library 1 (HGL1) against asexual blood stage Plasmodium falciparum ,using a nano luciferase reporter read-out” (2022).
The campaign covered roughly 150,000 compounds. About 540 (0.36%) showed an effect of 50% or more. The list shows a part of the results.

Tested on: Plasmodium falciparum
Assay: Primary screen in NF54 nanoGlo assay, in single point, at 2uM, 72h; a lower Z score goes with more inhibition
Assay type: functional, Erythrocyte
Settings: timepoint 72 hour

Row | SMILES | % Inhibition [%] | Z score
1 | N#Cc1nccnc1O[C@H]1CCCN(C(=O)Nc2cccs2)C1 | -15 | 2.51
2 | O=C(NC(c1ccccc1)c1ccccc1)c1cc(COc2c(F)cccc2F)on1 | -1 | 0.13
3 | O=C(Nc1nc(C(=O)N2CCCCC2)cs1)c1ccc(Cl)c(Cl)c1 | -12 | 1.69
4 | CN(Cc1cscn1)C(=O)[C@H]1CC12CCN(CC(c1ccccc1)c1ccccc1)CC2 | -1 | 0.25
5 | CC(C)c1nc(C2(NCc3nnc(C(C)C)o3)CCCC2)no1 | -7 | 0.87
6 | Cc1ccc2nc(CN3Cc4ncccc4C3=O)cn2c1 | -12 | 1.71
7 | C=CCN(C)C(=O)c1cc(F)ccc1F | -3 | 0.27
8 | COCCc1noc(C[C@H]2CCOC3(CCN(C(=O)Cc4cccc(OC)c4)CC3)C2)n1 | 0 | -0.01
9 | CN(C)S(=O)(=O)N(CC#N)Cc1ccc(C(F)F)cc1 | -6 | 1.1
10 | COc1cccc(CN2C(=O)c3cc4oc(C)cc4n3C[C@@]2(C)C(=O)NC2CCCCCCC2)c1 | -9 | 1.71
11 | C#CCN(CC#N)C(=O)[C@H]1CCCN(C(=O)NC2CCCC2)C1 | -19 | 1.93
12 | Cc1nc(C)c(S(=O)(=O)NCc2nc3c([nH]2)CCCC3)s1 | -6 | 0.77
13 | COCCNCCOc1ccc(Br)cc1Cl | -8 | 1.08
14 | CCCS(=O)(=O)NC(=O)CCC1CCCC1 | -11 | 1.66
15 | NC(=O)C1CCN(C(=O)c2ccc3c(c2)CCC3)CC1 | -14 | 1.64
16 | COC(=O)CN(C(C)C)S(=O)(=O)c1cc(Cl)cc(Cl)c1 | 33 | -1.13
17 | CC(C)CN(CC(=O)N(CCc1c[nH]c2ccccc12)Cc1ccc(Cl)cc1)Cc1ccc(Cl)cc1 | -8 | 1.43
18 | O=C(NCc1cccnc1-c1ccco1)c1ccc(S(=O)(=O)N2CCOCC2)cc1 | -4 | 0.72
19 | CN1CCCC[C@@H]1CCn1ncc(N2CCc3ccccc3C2)cc1=O | -32 | 2.82
20 | CC(C)C[C@@H]1N=C(O)N(CCCn2ccnc2)C1=O | -18 | 1.59
21 | O=C1NC2C(NC(=O)N2C2CCCCC2)N1C1CCCCC1 (stereo not given) | 5 | -0.61
22 | Cc1c(S(=O)(=O)N2CCC[C@H](C(=O)N3CCCC3)C2)cnn1C | 0 | -0.03

Row | SMILES | % Inhibition [%] | Z score
23 | COc1cc(C(=O)Nc2ccc(CN(C)C)c(Cl)c2)sn1 | 3 | -0.58
24 | O=C(NCCNc1cc(Nc2ccccn2)ncn1)Nc1ccccc1 | -3 | 0.62
25 | Cc1ccc(C)c(-n2cnc(=O)n2Cc2nnc3n2CCOC3)c1 | -12 | 2.31
26 | O=C(O)CN(C(=O)C1CC1c1cc(Cl)cc(Cl)c1)C1CCOCC1 (stereo not given) | 2 | -0.21
27 | Cc1cc(S(=O)(=O)Nc2ccccc2C(=O)Nc2ccc3c(c2)OCCO3)c(C)s1 | -10 | 0.87
28 | O=C(c1ccon1)N1CCC(c2ncc(C(F)(F)F)[nH]2)CC1 | -6 | 0.75
29 | Cc1ccc2[nH]c(C(=O)N3CCC4(CC3)CNC(=O)C4)nc2c1 | -4 | 0.63
30 | C[C@H]1CCC(=O)N1c1ccc(NC(=O)c2cc(=O)nc3sccn23)cc1 | -11 | 2.06
31 | CC(=O)OCC1OC(n2ccc(=O)[nH]c2=O)CC1OC(C)=O (stereo not given) | -5 | 0.59
32 | CCC(CC)C(=O)Nc1ccc(Br)c(C)c1 | 0 | 0.06
33 | O=C(NC1CCCCC1)c1cc2c(s1)CCN(C(=O)c1ccc(F)cc1)C2 | -12 | 1.98
34 | Cc1nc(C(=O)N2CCN(c3cc(C(F)(F)F)ncn3)CC2)cs1 | -23 | 2.89
35 | Cc1cc(O[C@H]2CCN(C(=O)C3c4ccccc4Oc4ccccc43)C2)nc(C)n1 | 7 | -1.06
36 | COc1ccc(CC(=O)N[C@H](C)c2onc(-c3ccc(F)cc3)c2C(=O)O)cc1 | 14 | -1.68
37 | C[C@H](Oc1ccc(Br)cc1F)c1ncc(Br)cn1 | -21 | 4.04
38 | CCc1nc(CN(C)CC(=O)N2CCCC2)cs1 | -5 | 0.94
39 | COc1ccc2c(c1OC)O[C@@](C)(CCC(=O)N1CCCC1)CC2=O | 1 | -0.11
40 | Cc1c(C#N)c(NC(=O)CN2C[C@@H](C(N)=O)Oc3ccccc32)n(Cc2ccco2)c1C | -12 | 1.33
41 | Cc1noc(C(C)NC(=O)NC2CCN(C)C2c2ccccc2)n1 (stereo not given) | 3 | -0.5
42 | O[C@@H](CNCc1c[nH]nc1-c1cccs1)c1ccc(F)cc1 | -7 | 1.47
43 | Cc1ccc[n+](Cc2ccc3ccccc3n2)c1 | 59 | -7.89
44 | O=C(N[C@H]1CCCOCC1)c1ccc2c(c1)OCO2 | -5 | 0.95

Row | SMILES | % Inhibition [%] | Z score
45 | COc1ccc(C(C)NC2CCc3nc(C)cn3C2)cc1C (stereo not given) | -2 | 0.26
46 | CN(C)CCN(Cc1ccccc1)C(=O)[C@@H]1CCCCc2nnc(-c3ccccc3)n21 | -6 | 0.87
47 | Cc1cc([C@@H](O)CCNC(=O)C(=O)NCCc2ccccc2)c(C)o1 | -15 | 1.91
48 | CC(C)NC(=O)N(C)CCc1cnccn1 | 2 | -0.33
49 | OCCOc1ccccc1CN1CCC[C@@](CO)(CCCc2ccccc2)C1 | -8 | 0.99
50 | CCc1cccnc1-c1noc(C(C)(C)C#N)n1 | 6 | -1.13
51 | COc1nscc1CN(C)c1cc(C)nc2ncnn12 | -1 | 0.23
52 | CCC(C)C(C)(O)CNC(=O)c1ccc(O)c(Cl)c1 (stereo not given) | -6 | 0.93
53 | CCOC(=O)c1ncn(CC(=O)OC)c1N | -5 | 0.63
54 | COc1ccc(C(=O)NC2CC2)c(OC2CCN(CCCc3ccccc3)CC2)c1 | -21 | 1.97
55 | Cc1cccnc1C[C@H](C)NC(=O)c1cnn[nH]1 | 4 | -0.36
56 | CCOC(=O)c1cc(-c2ccccc2)nnc1Oc1ccccc1 | 32 | -1.23
57 | O=C(NCc1ccccn1)c1cn2c3c(cccc3c1=O)CCC2 | -13 | 1.83
58 | CCn1cc([C@H](C)NC(=O)Cn2ncn(C)c2=O)cn1 | -3 | 0.65
59 | O=C1C[C@H](c2ccccc2OCc2ccccc2F)c2sccc2N1 | 13 | -1.72
60 | O=C1[C@@H]2C[C@@H](CN2C(=O)c2cnccn2)Oc2ccccc2N1CC1CC1 | -11 | 1.61
61 | COc1ccc(C(=O)N(C(=O)c2ccc(OC)cc2)c2c3c(nc4ccccc24)CCCC3)cc1 | 69 | -5.66
62 | CC1(C)c2[nH]c3ccccc3c2C[C@H]2C(=O)N(Cc3ccc(F)cc3)CC(=O)N21 | -3 | 0.39
63 | O=C(Cc1c[nH]c2ccccc12)Nc1cccc(-c2noc(C3CCCC3)n2)c1 | -14 | 2.47
64 | CON(C)C(=O)C1CN(C(=O)c2cccs2)C1 | -7 | 1.12
65 | CC1CN(C(=O)C(C)(C)c2cccc(C#N)c2)CC1N1CCOCC1 (stereo not given) | -12 | 1.56
66 | Clc1ccc(CN2CCO[C@H](c3cccnc3)C2)o1 | -2 | 0.43

Row | SMILES | % Inhibition [%] | Z score
67 | NC(=NOCC(=O)NCc1ccc2c(c1)OCO2)c1ccc(Cl)cc1 | -5 | 0.92
68 | CN(C)C[C@]1(O)CCCN(Cc2ccc3[nH]ccc3c2)C1 | 2 | -0.5
69 | Cc1ccccc1NC(=O)C[C@H]1COc2ccccc2NC1=O | -16 | 1.85
70 | CCCN1C(=O)c2c(C(=O)Nc3cc(F)ccc3F)ncn2C[C@@]1(C)C(=O)NCc1ccc(C)cc1 | -15 | 2.81
71 | CC(C)n1cc(CN2CCN(C(=O)N(C)C)[C@H]3CS(=O)(=O)C[C@H]32)cn1 | -8 | 1.35
72 | CN(C)CCCc1nc(-c2ccccc2)nn1-c1ccc2c(c1)OCO2 | -7 | 1.06
73 | Cc1sc2nc(CN3CCC(C)CC3)nc(N3CC(O)CC3C(N)=O)c2c1C (stereo not given) | -6 | 0.7
74 | CCS(=O)(=O)N1CC(N2CCN(C(=O)OC(C)(C)C)CC2)C1 | -3 | 0.33
75 | Cc1c(C(=O)N2CC3(CCC3)c3c(F)cccc32)nnn1-c1ccn(C)n1 | 11 | -1.43
76 | CCn1c(-c2cccnc2)nc2cc(NC(=O)COC)cc(C(=O)N[C@@H](C)CCCC(C)(C)O)c21 | -3 | 0.5
77 | CC(C)OCC(=O)N1CCN(C(=O)COC(C)C)[C@H](C#N)C1 | 3 | -0.63
78 | O=C([C@@H]1CCCO1)N1CCCN(Cc2ccc(C3CCCC3)s2)CC1 | 2 | -0.34
79 | COc1ccccc1CCNC(=O)c1csc(NC(C)C)n1 | 6 | -0.74
80 | Cc1ccsc1CCNC(=O)[C@@H]1CNCCO1 | -5 | 0.7
81 | O=C(NCCc1ccccc1)Nc1cnn(Cc2ccccn2)c1 | -9 | 1.19
82 | O=C(NCc1ccccn1)[C@@H]1CN(Cc2cc3ccccc3o2)CCN1 | -6 | 0.97
83 | Clc1ccc([C@@H]2c3cccn3CCCN2Cc2cccnc2)cc1Cl | -2 | 0.27
84 | COCCNC(=O)c1[nH]c2c(NC(=O)Nc3ccc(C)cc3)cc(C)cc2c1-c1ccccc1 | 27 | -3.07
85 | O=C(Nc1ccc(-c2ccccn2)cc1)N1CCCC1 | -8 | 1.06
